According to PubChem BioAssay AID504706 (National Center for Advancing Translational Sciences (NCATS), 2011):
Hit rate of the full screen: of about 320,000 compounds, about 200 (0.062%) were called active. This list was built around the results that the source calls inconclusive (neither active nor inactive); the mix of calls is not that of the screen. The call rests on the fitted dose curve; in most records, active means well fitted activation curve with a large enough effect; inconclusive means small, poorly fitted or top-dose-only effect; inactive means no such curve, though single readings can be large or run the other way. Potencies of inconclusive entries are left out as doubtful fits.

assay: qHTS assay for re-activators of p53 using a Luc reporter; settings: H1299 p53-A138V BP100-luciferase reporter, luminescence, 24 h; series mostly up to 92.2 µM; further: nearly all actives have a fitted effect of over 45% in size
Outline: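 p53-null H1299 cells stably carrying temperature-sensitive p53-A138V and a BP100-luciferase reporter were pinned with compounds (4-point, 1:5 series) and held 24 hrs at 37 deg C. Luminescence was read 10 min after detection reagent.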
Potency means the concentration at half of the fitted maximal effect; tags describe the fitted curve by direction and shape.

Row | SMILES | Potency
1 | O=C(/C=C\c1ccccc1OC(=O)c1ccccc1F)c1cc2ccccc2o1 | inconclusive [activator, partial curve, poor fit]
2 | CC1(C)CC(=O)c2cnc(N3CCc4ccccc43)nc2C1 | inconclusive [activator, full curve, poor fit]
3 | C/C(=N\NC(=O)c1ccccc1O)C1C(=O)c2ccccc2C1=O | inconclusive [activator, partial curve, poor fit]
4 | CC(=O)N1CCCc2cc(S(=O)(=O)N3CCCC(C(=O)NCc4ccccc4)C3)ccc21 (stereo not drawn) | inconclusive [activator, single point]
5 | COCc1cc(C)nc(OCC(=O)N/N=C/c2cccc(OC)c2)c1C#N | inactive
6 | CC1(C)CC(=O)C(N=Nc2cccc([N+](=O)[O-])c2)=C(O)C1 | inconclusive [activator, partial curve, poor fit]
7 | c1ccc(Cn2c(-c3ccccc3)c[n+]3c2SCCC3)cc1 | inactive
8 | COc1ccc(CCn2c(=O)[nH]c3cc(C(=O)NCCc4ccccc4)ccc3c2=O)cc1OC | inconclusive [activator, partial curve, poor fit]
9 | CCOC(=O)N1CCN(C(=O)c2ccc3c(=O)n(-c4cc(OC)ccc4OC)c(=S)[nH]c3c2)CC1 | inactive
10 | C=CCNc1nc(=S)[nH]c2cc(OC)c(OC)cc12 | inactive
11 | CCOC(=O)C1CCN(C(=O)CN2C(=O)c3ccccc3S2(=O)=O)CC1 | inconclusive [activator, partial curve, poor fit]
12 | Cc1cccc2nc(CSC(=N)N)c(Br)n12 | inconclusive [activator, partial curve, poor fit]
13 | COC(=O)c1cccc(C(=O)Nc2ccc(C)cc2Br)n1 | inconclusive [activator, single point]
14 | O=C(O)/C=C/C(=O)Nc1ccc(Cl)cc1C(=O)c1ccccc1 | inactive
15 | CC1CCC/C(=C\Nc2ccccc2C(=O)O)C1=O (stereo not drawn) | inconclusive [activator, single point]
16 | COc1cccc(CNc2nc3nc(C)c(Cl)c(C)n3n2)c1 | inconclusive [activator, full curve, poor fit]
17 | Cn1c(=O)c(=O)n(C)c2cc(N3CCCC3)c(NS(=O)(=O)c3ccc(Cl)cc3)cc21 | inactive
18 | CC(=O)c1cccc(NC(=S)NC(=O)c2ccc(Cl)cc2)c1 | inconclusive [activator, partial curve, poor fit]
19 | CCC1CCC(C(=O)NC(C(=O)Nc2ccc3c(c2)OCCO3)C(C)C)CC1 (stereo not drawn) | inconclusive [activator, single point]
20 | COc1ccc(Cl)cc1NC(=S)NCCSc1ccc(C)cc1 | inconclusive [activator, single point]
21 | COc1cc2ccccc2cc1C(=O)NNC(=O)c1ccccc1O | inactive
22 | C=CCNc1oc(/C=C/c2ccccc2)nc1C#N | inconclusive [activator, full curve, poor fit]
23 | CC(C)CCN1CCNC(=O)C1CC(=O)N(C)CCCN1CCOCC1 (stereo not drawn) | inactive

Row | SMILES | Potency
24 | Cc1ccc(C(=O)N2CCc3ccccc32)o1 | inconclusive [activator, partial curve, poor fit]
25 | CC(C)(C)c1ccc(-c2noc(CCC(=O)NCc3ccco3)n2)cc1 | inconclusive [activator, partial curve, poor fit]
26 | COc1ccc(-c2csc(NC(=O)COC(=O)Cc3ccc(Cl)cc3Cl)n2)cc1 | inconclusive [activator, partial curve, poor fit]
27 | O=C(Cn1cc2c(n1)CCCCC2)N1CCCCC1 | inconclusive [activator, partial curve, poor fit]
28 | CCN(Cc1ccccc1)C(=O)C1CCN(CC2CC=CCC2)CC1 (stereo not drawn) | inconclusive [activator, single point]
29 | Cc1cccc(NC(=S)Nc2ccc3cn[nH]c3c2)c1 | inconclusive [activator, partial curve, poor fit]
30 | O=C(c1cn(CC2CCCCC2)nn1)N1CCN(c2ccc(F)cc2)CC1 | inactive
31 | Cc1ccc(C(=O)/C=C/c2c(C)nn(-c3ccccc3)c2Cl)cc1 | inconclusive [activator, partial curve, poor fit]
32 | O=C(CSc1nc(O)c(C2CCCCC2)c(=O)[nH]1)NCC1CCCO1 (stereo not drawn) | inconclusive [activator, partial curve, poor fit]
33 | C=CCNC(=O)/C(C#N)=C/c1ccccc1OCc1ccc(C(=O)OC)cc1 | inconclusive [activator, partial curve, poor fit]
34 | COc1cc(-c2noc(C)c2C#CC2(N)CCCCC2)cc(OC)c1OC | inactive
35 | Cc1ccc(C)c(NNC(=O)C(=O)NNc2cc(C)ccc2C)c1 | inactive
36 | O=c1oc(C2(O)CCCCC2)cc2ccc(-c3ccc4[nH]ccc4c3)cc12 | inconclusive [activator, full curve, poor fit]
37 | CSc1nc(N)n2nc(-c3ccc(Cl)cc3)cc2n1 | inactive
38 | COc1cc(O)c(C(=O)/C=C/c2ccccc2)c(OC)c1 | inconclusive [activator, single point]
39 | Cc1csc(=NC(=O)c2ccccc2)n1C | inconclusive [activator, full curve, poor fit]
40 | CCOc1ccc(NC(=O)CN(C)C(=O)c2cccnc2SC)cc1OCC | inconclusive [activator, single point]
41 | Clc1c(CSc2nc3ccccc3o2)nc2ccccn12 | inconclusive [activator, partial curve, poor fit]
42 | COc1ccc(-c2ccc(SCC(=O)N3CC(=O)Nc4ccccc43)nn2)cc1 | inconclusive [activator, partial curve, poor fit]
43 | CSCCC(NC(=O)c1ccco1)C(=O)Nc1cc(C)ccn1 (stereo not drawn) | inconclusive [activator, full curve, poor fit]
44 | O=C(NC1CCN(Cc2ccccc2)CC1)C1CCN(S(=O)(=O)c2cccc3cccnc23)CC1 | inconclusive [activator, single point]
45 | CC(=O)NCc1ccc(-c2nc3ccccc3s2)cc1 | inactive
46 | O=S(=O)(N1CCCCCC1)N1CCNCC1 | inconclusive [activator, single point]

Row | SMILES | Potency
47 | O=C(c1cc(-c2ccccc2)on1)N1CCCCCC1 | inactive
48 | CCN1CCCC1CNC(=O)C(=O)NCCc1ccc(OC)c(OC)c1 (stereo not drawn) | inactive
49 | COc1ccc(N=Nc2[nH]c3ccc(C)cc3c2O)cc1 | inconclusive [activator, full curve, poor fit]
50 | CC(=O)NC(CCS(C)(=O)=O)C(=O)N1CCc2ccccc21 (stereo not drawn) | inactive
51 | Cc1cccc(NC(=O)Nc2c(C)n(C)n(-c3ccccc3)c2=O)c1C | inconclusive [activator, partial curve, poor fit]
52 | CC(=O)c1cccc(NC(=O)Nc2ccc(C)cc2)c1 | inconclusive [activator, partial curve]
53 | Cc1nc2nc(-c3cccs3)cn2nc1C | inconclusive [activator, partial curve, poor fit]
54 | COc1ccc(C(=O)Nc2nnc(SCC(=O)NCC3CCCO3)s2)cc1OC (stereo not drawn) | inactive
55 | CC(c1ccccc1)c1nnc(NC(=O)c2ccc3c(c2)OCO3)s1 (stereo not drawn) | inactive
56 | COc1ccc2c(COC(=O)c3n[nH]c4ccccc34)cc(=O)oc2c1 | inconclusive [activator, partial curve, poor fit]
57 | Cc1cc(=O)[nH]c(N=N/C(=N/Nc2ccc(O)cc2)c2ccccc2)n1 | inconclusive [activator, partial curve, poor fit]
58 | CCOC(=O)C1CCN(C(=O)C2CCN(C(=O)c3ccc([N+](=O)[O-])cc3)CC2)CC1 | inconclusive [activator, partial curve, poor fit]
59 | CC(/C=C/c1ccccc1)=N\Nc1nc(C)cc(C)n1 | inconclusive [activator, partial curve, poor fit]
60 | O=C(COC(=O)c1cccc(O)c1)NC(=O)Cc1ccccc1 | inconclusive [activator, single point]
61 | Cc1nn(-c2ccccc2)c(C)c1C(=O)NCCc1ccccc1 | inconclusive [activator, partial curve, poor fit]
62 | COc1ccc(-c2cc(-c3ccc(Cl)cc3)n[nH]2)c(O)c1 | inconclusive [activator, full curve, poor fit]
63 | Cc1ccc(O)c(-c2cc3ccccc3[nH]2)c1 | inconclusive [activator, single point]
64 | COc1ccc2oc(C(=O)OCC(=O)N3CCN(S(=O)(=O)c4ccccc4)CC3)c(C)c2c1 | inactive
65 | COC(=O)c1c(C)[nH]c(C(=O)COC(=O)CCNS(=O)(=O)c2cccc(C(F)(F)F)c2)c1C | inactive
66 | O=Cc1c(NCc2ccccc2F)c2ccccc2[nH]c1=O | inconclusive [activator, single point]
67 | CC(Oc1ccccc1F)C(=O)NNC(=O)c1cccc(S(=O)(=O)N2CCN(C)CC2)c1 (stereo not drawn) | inactive
68 | CCOC(=O)c1nc(Nc2ccc(N3CCOCC3)cc2)c2ccccc2n1 | inactive
